The list shows a part of the results.
Target: T1, OsWOX13 (Oryza sativa, UniProt Q5QMM3 1-267)
T1 sequence: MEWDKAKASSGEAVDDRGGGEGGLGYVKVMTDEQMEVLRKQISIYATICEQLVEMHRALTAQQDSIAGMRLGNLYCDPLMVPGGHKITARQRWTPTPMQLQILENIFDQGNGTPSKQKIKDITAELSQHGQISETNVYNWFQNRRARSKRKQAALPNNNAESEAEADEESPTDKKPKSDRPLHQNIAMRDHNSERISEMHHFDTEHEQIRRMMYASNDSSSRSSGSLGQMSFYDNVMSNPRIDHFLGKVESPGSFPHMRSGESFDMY
Experiment: protein-binding microarray (RPBM); PBS, 2% BSA, 51.3 ng/ul salmon testes DNA, 50 uM zinc acetate, 200 nM TF, 25 C, 1 h; high values mean tight binding
Settings: protein: recombinant; tags: N-terminal polyhistidine and DsRed monomer fusion (pET32a); label: CyDye5-dUTP incorporated in the synthesized complementary strand; 3' TTTTT single-stranded linker to array surface; dsDNA, one strand shown
Summary of the method: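 Transcription factors were each fused at the N-terminus to a polyhistidine tag plus DsRed and expressed in E. coli BL21-CodonPlus before Ni–NTA purification. Binding to a double-stranded custom Agilent array was carried out with 200 nM protein at 25 °C for 1 h in PBS, 2% BSA, salmon testes DNA and 50 µM zinc acetate. The binding signal is per-feature fluorescence intensity, in arbitrary units, on an Axon 4000B scanner.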

Sequence | binding signal
GTCCAGGCTTAATTCAATCATTATATGTACATATCTTTGTCGGAGTCACCTAGTGCAG | 6860 fluorescence intensity (a.u.)
TAAATAAATGATTGGGCTTGTTAATGGGCTTCCTCTTCCTCGGAGTCACCTAGTGCAG | 41900 fluorescence intensity (a.u.)
TTAATTAAGCTAATTCTAAGACAATTCTTTGTGAATCCCCCGGAGTCACCTAGTGCAG | 8920 fluorescence intensity (a.u.)
TTAGATAATGTGTAATCAATTTTCTATTTCACAAACATGACGGAGTCACCTAGTGCAG | 14700 fluorescence intensity (a.u.)
CTCTCCATCTGATTTAGCTAGTCAAATTAGATACTCACTCCGGAGTCACCTAGTGCAG | 3200 fluorescence intensity (a.u.)
TTTTCGTTTACTGATTTGTGTTCAACAAGCGGCAGATTCGCGGAGTCACCTAGTGCAG | 3980 fluorescence intensity (a.u.)
TCCGCCAATCAGCGCCCACCTCTCCCCTCCTTTAATACCACGGAGTCACCTAGTGCAG | 7870 fluorescence intensity (a.u.)
CAAAATTGTATCAAATTGTTTTAGTTTTGTACATATTATGCGGAGTCACCTAGTGCAG | 26300 fluorescence intensity (a.u.)
TTAGCTTGATGGATTTGGTAAACCAAGAGGTCCTTCATGTCGGAGTCACCTAGTGCAG | 6580 fluorescence intensity (a.u.)
AAGCAAGTGATTAATCATTCACGTCTTCTGCATGATCATCCGGAGTCACCTAGTGCAG | 12900 fluorescence intensity (a.u.)
ATGGATGTTCTAAATTAGACTAATTTAAGTATCTTGACAACGGAGTCACCTAGTGCAG | 12800 fluorescence intensity (a.u.)
CACTAATTAACAATGGAGCTGTACGCACTAGTAGTAATTCCGGAGTCACCTAGTGCAG | 20100 fluorescence intensity (a.u.)
TTTAATTTTCTTGTTTGTCATCAACATGACAGCAAACAAACGGAGTCACCTAGTGCAG | 8500 fluorescence intensity (a.u.)
GATAAATGGGTTGATCCAATTGAACACGTACGCAGTGGGGCGGAGTCACCTAGTGCAG | 6580 fluorescence intensity (a.u.)
GTCCACTCCCCGTTGATTTGATTTGTCTCGTAGCTGCAGCCGGAGTCACCTAGTGCAG | 12600 fluorescence intensity (a.u.)
TTAATTATATGCTAATGGCTAACCTTATTTTACGTATCTTCGGAGTCACCTAGTGCAG | 5100 fluorescence intensity (a.u.)
TTAATGAAAACCAATGTGATTGTTCGGCACGGTCACACGACGGAGTCACCTAGTGCAG | 5270 fluorescence intensity (a.u.)
AAATTTATGTAATTATCATTTATTTTATTATGACTTGATTCGGAGTCACCTAGTGCAG | 13300 fluorescence intensity (a.u.)
CATTAACTGGGATACCATCAATTAGCGGTGACCCTACTAACGGAGTCACCTAGTGCAG | 18300 fluorescence intensity (a.u.)
AGCTTTAATTTAGTGAATGGAAATACTCCATATTTATTTGCGGAGTCACCTAGTGCAG | 10700 fluorescence intensity (a.u.)
CTCCATATCAATCAAACGGGACGATATAAGCGACATATCACGGAGTCACCTAGTGCAG | 13900 fluorescence intensity (a.u.)

Sequence | binding signal
GTTAATTGCCACATCTAAATATGGCAAACGGTTAAATATCCGGAGTCACCTAGTGCAG | 28500 fluorescence intensity (a.u.)
GCAAAACACCAGTATCAATCATTTGGCAATAAGACGTACTCGGAGTCACCTAGTGCAG | 4580 fluorescence intensity (a.u.)
TATTGAGCCTAATTAATCCATGATTAGCCTATATGATGCTCGGAGTCACCTAGTGCAG | 18500 fluorescence intensity (a.u.)
CAGGATTGGAAACTTTCAACTTGAGATTTGAAAACTTTCACGGAGTCACCTAGTGCAG | 5250 fluorescence intensity (a.u.)
AATTAATCAATCACAGGTTATTAGTACTCCAGCATAGGTACGGAGTCACCTAGTGCAG | 38600 fluorescence intensity (a.u.)
AAACCCACTAATTATTGTCCTTCATTTGGCCCTTCATATACGGAGTCACCTAGTGCAG | 5900 fluorescence intensity (a.u.)
ATTGAGGTCTAATCTGATTTAGATTATTGAGCGGATCACCCGGAGTCACCTAGTGCAG | 7650 fluorescence intensity (a.u.)
TCTAACAATTGAACAATTTAATTCCGCCATTCTTGGATTCCGGAGTCACCTAGTGCAG | 11000 fluorescence intensity (a.u.)
TTCAAACACATGATTGCCCTCGTCAAACAAGACACATGTGCGGAGTCACCTAGTGCAG | 29000 fluorescence intensity (a.u.)
TTATCAGCCTATAAATTTATTATTATTTATGTCCTCCACACGGAGTCACCTAGTGCAG | 3150 fluorescence intensity (a.u.)
TAGTAATTTTATTTCTAGCAACCATTGATCCAAATCGAACCGGAGTCACCTAGTGCAG | 3580 fluorescence intensity (a.u.)
GGACTGCTATAGGCAAATTGAAATTAGCATGCAGCTCTGGCGGAGTCACCTAGTGCAG | 3260 fluorescence intensity (a.u.)
TAACCTAGCAATCACCGCATTGATCCTGTTGCCCTTTGTGCGGAGTCACCTAGTGCAG | 5050 fluorescence intensity (a.u.)
TACTGATGAGGATCAAAATTTAGTGATCAACCGATAATGTCGGAGTCACCTAGTGCAG | 4700 fluorescence intensity (a.u.)
TTATTATTATTAATCAATCGCCTTCTTCCCCTCTTCCCTCCGGAGTCACCTAGTGCAG | 3850 fluorescence intensity (a.u.)
GAAGATTTAGATTTTACATTGGTTTTCATTAACACGTTTTCGGAGTCACCTAGTGCAG | 6700 fluorescence intensity (a.u.)
AGTTGTAATTATATTATAACTTACACATAATTACAACGTACGGAGTCACCTAGTGCAG | 23500 fluorescence intensity (a.u.)
CTGCAACAGCATTCAATTACCGTAGCCGCTGTAACTAGGGCGGAGTCACCTAGTGCAG | 3150 fluorescence intensity (a.u.)
CAATTGGACAAATTAACTTCAAGTTATGCACTTATGCTATCGGAGTCACCTAGTGCAG | 7160 fluorescence intensity (a.u.)
TTTAAACCTAATTGCTGTATGATTTGATAATAAGGTGCTACGGAGTCACCTAGTGCAG | 24200 fluorescence intensity (a.u.)
ACTTTAATAAGTTAATTAAGTCAATAGATTATGTAATAAGCGGAGTCACCTAGTGCAG | 14900 fluorescence intensity (a.u.)

Source: paper PMC7819943, “Rice protein-binding microarrays: a tool to detect cis-acting elements near promoter regions in rice”
